# This is one part of the list.
# How the values were obtained:
# Experiment in all cases: glycan array binding signal (z-score within array); higher = stronger binding
# Conditions in all cases: glycan notation: IUPAC condensed, linker removed
# Kdn(a2-6)Gal(b1-4)GlcNAc = molecular target: Kdn(a2-6)Gal(b1-4)GlcNAc
# Outline: (§1)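 Glycan array data were curated from 3228 arrays in the Consortium for Functional Glycomics database and kept only where the protein sequence was available. Glycan names were converted to IUPAC-condensed notation, and columns mapping to the same glycan were averaged. The binding signal is a within-array Z-score, averaged across arrays of the same protein sequence at different concentrations or buffers and across linkers. Negative Z-scores can be read as non-binding.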
# [1] = molecular target: Man(a1-2)Man(a1-2)Man(a1-3)Man
# Outline: as §1
# [2] = molecular target: Man(a1-2)Man(a1-2)Man(a1-6)[Man(a1-3)]Man
# Outline: as §1
# Man(a1-2)Man(a1-3)Man = molecular target: Man(a1-2)Man(a1-3)Man
# Outline: as §1
# [3] = molecular target: Man(a1-2)Man(a1-3)[Man(a1-2)Man(a1-6)]Man
# Outline: as §1
# [4] = molecular target: Man(a1-2)Man(a1-3)[Man(a1-2)Man(a1-6)]Man(a1-6)[Man(a1-2)Man(a1-2)Man(a1-3)]Man
# Outline: as §1
# [5] = molecular target: Man(a1-2)Man(a1-3)[Man(a1-2)Man(a1-6)]Man(a1-6)[Man(a1-2)Man(a1-2)Man(a1-3)]Man(b1-4)GlcNAc(b1-4)GlcNAc
# Outline: as §1
# [6] = molecular target: Man(a1-2)Man(a1-3)[Man(a1-6)]Man(a1-6)[Man(a1-2)Man(a1-3)]Man(b1-4)GlcNAc(b1-4)GlcNAc
# Outline: as §1
# [7] = molecular target: Man(a1-2)Man(a1-6)[Man(a1-3)]Man(a1-6)[Man(a1-2)Man(a1-2)Man(a1-3)]Man
# Outline: as §1
# [8] = molecular target: Man(a1-2)Man(a1-6)[Man(a1-3)]Man(a1-6)[Man(a1-2)Man(a1-2)Man(a1-3)]Man(b1-4)GlcNAc(b1-4)GlcNAc
# Outline: as §1
# Man(a1-3)[Man(a1-6)]Man = molecular target: Man(a1-3)[Man(a1-6)]Man
# Outline: as §1
# [9] = molecular target: Man(a1-3)[Man(a1-6)]Man(a1-6)[Man(a1-2)Man(a1-3)]Man(b1-4)GlcNAc(b1-4)GlcNAc
# Outline: as §1
# [10] = molecular target: Man(a1-3)[Man(a1-6)]Man(a1-6)[Man(a1-3)]Man
# Outline: as §1
# [11] = molecular target: Man(a1-3)[Man(a1-6)]Man(a1-6)[Man(a1-3)]Man(b1-4)GlcNAc(b1-4)GlcNAc
# Outline: as §1
# [12] = molecular target: Man(a1-3)[Man(a1-6)]Man(b1-4)GlcNAc(b1-4)GlcNAc
# Outline: as §1
# [13] = molecular target: Man(a1-3)[Man(a1-6)]Man(b1-4)GlcNAc(b1-4)[Fuc(a1-6)]GlcNAc
# Outline: as §1
# Man(a1-6)Man = molecular target: Man(a1-6)Man
# Outline: as §1
# Man(b1-4)GlcNAc = molecular target: Man(b1-4)GlcNAc
# Outline: as §1
# MurNAc(b1-4)GlcNAc = molecular target: MurNAc(b1-4)GlcNAc
# Outline: as §1
# Neu5Ac(a2-3)Gal = molecular target: Neu5Ac(a2-3)Gal
# Outline: as §1
# [14] = molecular target: Neu5Ac(a2-3)Gal(b1-3)GalNAc
# Outline: as §1
# [15] = molecular target: Neu5Ac(a2-3)Gal(b1-3)GalNAc(b1-3)Gal(a1-4)Gal(b1-4)Glc
# Outline: as §1
# [16] = molecular target: Neu5Ac(a2-3)Gal(b1-3)GalNAc(b1-4)[Neu5Ac(a2-3)]Gal(b1-4)Glc
# Outline: as §1
# [17] = molecular target: Neu5Ac(a2-3)Gal(b1-3)GalNAc(b1-4)[Neu5Ac(a2-8)Neu5Ac(a2-3)]Gal(b1-4)Glc
# Outline: as §1
# [18] = molecular target: Neu5Ac(a2-3)Gal(b1-3)GalNAc6S
# Outline: as §1
# [19] = molecular target: Neu5Ac(a2-3)Gal(b1-3)GlcNAc
# Outline: as §1
# [20] = molecular target: Neu5Ac(a2-3)Gal(b1-3)GlcNAc(b1-2)Man
# Outline: as §1
# [21] = molecular target: Neu5Ac(a2-3)Gal(b1-3)GlcNAc(b1-2)Man(a1-3)[GlcNAc(b1-4)][Neu5Ac(a2-3)Gal(b1-3)GlcNAc(b1-2)Man(a1-6)]Man(b1-4)GlcNAc(b1-4)GlcNAc
# Outline: as §1
# [22] = molecular target: Neu5Ac(a2-3)Gal(b1-3)GlcNAc(b1-2)Man(a1-3)[Neu5Ac(a2-3)Gal(b1-3)GlcNAc(b1-2)Man(a1-6)]Man(b1-4)GlcNAc(b1-4)GlcNAc
# Outline: as §1
# [23] = molecular target: Neu5Ac(a2-3)Gal(b1-3)GlcNAc(b1-3)Gal(b1-3)GlcNAc
# Outline: as §1
# [24] = molecular target: Neu5Ac(a2-3)Gal(b1-3)GlcNAc(b1-3)Gal(b1-4)GlcNAc
# Outline: as §1
# [25] = molecular target: Neu5Ac(a2-3)Gal(b1-3)GlcNAc(b1-3)GalNAc
# Outline: as §1
# [26] = molecular target: Neu5Ac(a2-3)Gal(b1-3)GlcNAc(b1-4)Gal(b1-4)Glc
# Outline: as §1
# [27] = molecular target: Neu5Ac(a2-3)Gal(b1-3)GlcNAc(b1-6)GalNAc
# Outline: as §1
# [28] = molecular target: Neu5Ac(a2-3)Gal(b1-3)GlcNAc6S
# Outline: as §1
# [29] = molecular target: Neu5Ac(a2-3)Gal(b1-3)[Fuc(a1-4)]GlcNAc
# Outline: as §1
# [30] = molecular target: Neu5Ac(a2-3)Gal(b1-3)[Fuc(a1-4)]GlcNAc(b1-3)Gal(b1-3)[Fuc(a1-4)]GlcNAc
# Outline: as §1
binder,measurement,setting,value
PpFlo2 (Pichia pastoris) (protein) MGSSHHHHHHSSGLVPRGSHMDDSGNGDNSDTAYGCDITTNAVDGFDATIYQYNANDLRLIRDPTFMSTGYLGRNVLNKISGVTVPGFNIWNPSSRTATVYGVKNVNYYNMVLELKGYFKADVSGDYKLTLSHIDDSSMLFFGKETAFKCCDAGSIPLNEAPTDYSLFTIKPSNQVNSEVISATQYLEAGKYYPVRIVFVNALERARFDFKLTIPSGAVLDDFQNYIYQFGDLDENSCHE,glycan array binding signal (z-score),Kdn(a2-6)Gal(b1-4)GlcNAc,-0.297
same,glycan array binding signal (z-score),[1],-0.276
same,glycan array binding signal (z-score),[2],-0.295
same,glycan array binding signal (z-score),Man(a1-2)Man(a1-3)Man,-0.29
same,glycan array binding signal (z-score),[3],-0.303
same,glycan array binding signal (z-score),[4],-0.299
same,glycan array binding signal (z-score),[5],-0.288
same,glycan array binding signal (z-score),[6],-0.276
same,glycan array binding signal (z-score),[7],-0.301
same,glycan array binding signal (z-score),[8],-0.292
same,glycan array binding signal (z-score),Man(a1-3)[Man(a1-6)]Man,-0.299
same,glycan array binding signal (z-score),[9],-0.252
same,glycan array binding signal (z-score),[10],-0.299
same,glycan array binding signal (z-score),[11],-0.266
same,glycan array binding signal (z-score),[12],0.074
same,glycan array binding signal (z-score),[13],-0.248
same,glycan array binding signal (z-score),Man(a1-6)Man,-0.298
same,glycan array binding signal (z-score),Man(b1-4)GlcNAc,-0.299
same,glycan array binding signal (z-score),MurNAc(b1-4)GlcNAc,-0.149
same,glycan array binding signal (z-score),Neu5Ac(a2-3)Gal,-0.301
same,glycan array binding signal (z-score),[14],-0.302
same,glycan array binding signal (z-score),[15],-0.297
same,glycan array binding signal (z-score),[16],-0.301
same,glycan array binding signal (z-score),[17],-0.292
same,glycan array binding signal (z-score),[18],-0.3
same,glycan array binding signal (z-score),[19],-0.294
same,glycan array binding signal (z-score),[20],-0.271
same,glycan array binding signal (z-score),[21],-0.27
same,glycan array binding signal (z-score),[22],-0.268
same,glycan array binding signal (z-score),[23],-0.256
same,glycan array binding signal (z-score),[24],-0.293
same,glycan array binding signal (z-score),[25],-0.298
same,glycan array binding signal (z-score),[26],-0.277
same,glycan array binding signal (z-score),[27],-0.275
same,glycan array binding signal (z-score),[28],-0.295
same,glycan array binding signal (z-score),[29],-0.304
same,glycan array binding signal (z-score),[30],-0.292

# From the supplement of paper PMC8728848
